According to publication PMC9105235 (International Journal of Molecular Sciences, 2022):

Columns and labels:
Luc-KLHL7 [1] = target: T1, Luc-KLHL7 (UniProt Q8IXQ5 1-586); experiment: FRET or BRET; BRET in HEK293 cells as a2, cells pretreated with the neddylation inhibitor MLN4924 (unneddylated CUL3); conditions: partners not purified
T1 construct: KLHL7; also called KLHL7-luciferase; source: HEK293, transfected
T1 sequence (looked up): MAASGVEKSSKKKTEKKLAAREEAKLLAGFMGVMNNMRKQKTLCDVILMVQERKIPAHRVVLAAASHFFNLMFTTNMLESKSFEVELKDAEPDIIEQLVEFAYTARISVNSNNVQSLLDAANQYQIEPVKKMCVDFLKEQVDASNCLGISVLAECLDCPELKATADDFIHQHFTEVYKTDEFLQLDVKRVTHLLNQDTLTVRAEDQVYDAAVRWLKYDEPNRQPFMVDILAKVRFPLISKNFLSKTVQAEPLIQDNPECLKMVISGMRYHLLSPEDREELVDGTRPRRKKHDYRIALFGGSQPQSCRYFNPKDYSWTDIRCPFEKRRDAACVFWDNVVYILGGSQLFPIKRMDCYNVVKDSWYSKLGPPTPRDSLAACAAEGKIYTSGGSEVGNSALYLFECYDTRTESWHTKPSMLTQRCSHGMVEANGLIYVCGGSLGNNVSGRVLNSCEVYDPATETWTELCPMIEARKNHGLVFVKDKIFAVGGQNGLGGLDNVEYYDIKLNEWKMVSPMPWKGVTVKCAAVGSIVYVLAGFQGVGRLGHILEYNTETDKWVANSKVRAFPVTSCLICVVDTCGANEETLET

Luc-KLHL3 [2] = target: T2, Luc-KLHL3 (human, UniProt Q9UH77 1-587); experiment: as above; conditions: partners not purified
T2 construct: KLHL3, human cDNA subcloned into phLuc; source: HEK293, transfected; not shown: luciferase, N-terminal, kept
T2 sequence (looked up): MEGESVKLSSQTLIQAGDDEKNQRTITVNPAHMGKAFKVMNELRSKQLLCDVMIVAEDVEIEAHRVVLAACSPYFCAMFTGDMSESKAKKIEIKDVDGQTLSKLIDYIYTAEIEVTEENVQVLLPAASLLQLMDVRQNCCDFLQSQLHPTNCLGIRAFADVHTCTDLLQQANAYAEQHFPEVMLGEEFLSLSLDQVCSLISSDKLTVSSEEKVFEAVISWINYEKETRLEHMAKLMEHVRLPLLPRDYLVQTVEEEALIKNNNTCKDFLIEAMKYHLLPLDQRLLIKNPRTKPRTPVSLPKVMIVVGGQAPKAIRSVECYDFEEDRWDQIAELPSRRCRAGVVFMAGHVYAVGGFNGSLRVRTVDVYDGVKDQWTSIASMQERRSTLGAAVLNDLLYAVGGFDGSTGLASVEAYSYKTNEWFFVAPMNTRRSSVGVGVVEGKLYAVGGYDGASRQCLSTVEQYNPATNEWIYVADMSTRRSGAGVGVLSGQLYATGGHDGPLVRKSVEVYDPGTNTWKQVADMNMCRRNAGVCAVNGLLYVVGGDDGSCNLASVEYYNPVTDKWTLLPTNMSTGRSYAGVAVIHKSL

YFP-CUL3-WT = target: T3, YFP-CUL3-WT (human, UniProt Q13618); experiment: FRET or BRET; BRET in HEK293 cells, fixed amount of luciferase/NanoLuc donor, increasing amounts of YFP acceptor; BRET50 from the hyperbolic curve, apparent affinity; conditions: partners not purified
T3 construct: Cullin 3 (CUL3), human cDNA subcloned into pEYFP; In the dimerisation BRET one copy carried luciferase as donor (CUL3-Luc) and the other YFP as acceptor (YFP-CUL3); both copies are written as this one molecule; also called CUL3-Luc (donor copy in the dimerisation BRET); source: HEK293, transfected; not shown: YFP, N-terminal, kept

Luc-KLHL7 [3] = target: T1, Luc-KLHL7; experiment: as above; conditions: partners not purified
Luc-KLHL3 [4] = target: T2, Luc-KLHL3; experiment: as above; conditions: partners not purified
nanoluc-Bacurd = target: T4, nanoluc-Bacurd (UniProt Q8WZ19 1-329); experiment: as above; conditions: partners not purified
T4 construct: Bacurd1 (the text names Bacurd1, the legend and methods only Bacurd); also called Bacurd1; Bacurd-luciferase; source: HEK293, transfected
T4 sequence (looked up): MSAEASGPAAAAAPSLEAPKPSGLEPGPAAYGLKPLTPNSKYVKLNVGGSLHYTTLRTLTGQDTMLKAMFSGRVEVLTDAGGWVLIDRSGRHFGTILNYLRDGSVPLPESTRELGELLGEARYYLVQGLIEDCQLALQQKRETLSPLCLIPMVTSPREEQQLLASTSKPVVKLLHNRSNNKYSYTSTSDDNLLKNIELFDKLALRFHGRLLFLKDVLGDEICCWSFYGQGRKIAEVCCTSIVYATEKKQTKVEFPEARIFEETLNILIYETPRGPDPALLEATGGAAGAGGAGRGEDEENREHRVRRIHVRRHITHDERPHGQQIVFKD

[5] = target: the molecule itself; experiment: as above

BRET50 (Luc-KLHL7 [1]): 2.41 ± 0.66 [Luc]/[YFP] ratio | BRET50 (Luc-KLHL3 [2]): 1.17 [Luc]/[YFP] ratio | BRET50 (YFP-CUL3-WT): 0.45 [Luc]/[YFP] ratio | BRET50 (Luc-KLHL7 [3]): 2.71 ± 0.89 [Luc]/[YFP] ratio | BRET50 (Luc-KLHL3 [4]): 0.911 ± 0.33 [Luc]/[YFP] ratio | BRET50 (nanoluc-Bacurd): 1.01 ± 0.2 [Luc]/[YFP] ratio
B1: YFP-CUL3-∆9 (natural protein, human)
chain: [about 20 residues omitted]MDEKYVNSIWDLLKNAIQEIQRKNNSGLSFEELYRNAYTMVLHKHGEKLYTGLREVVTEHLINKVREDVLNSLNNNFLQTLNQAWNDHQTAMVMIRDILMYMDRVYVQQNNVENVYNLGLIIFRDQVVRYGCIRDHLRQTLLDMIARERKGEVVDRGAIRNACQMLMILGLEGRSVYEEDFEAPFLEMSAEFFQMESQKFLAENSASVYIKKVEARINEEIERVMHCLDKSTEEPIVKVVERELISKHMKTIVEMENSGLVHMLKNGKTEDLGCMYKLFSRVPNGLKTMCECMSSYLREQGKALVSEEGEGKNPVDYIQGLLDLKSRFDRFLLESFNNDRLFKQTIAGDFEYFLNLNSRSPEYLSLFIDDKLKKGVKGTECGCQFTSKLEGMFRDMSISNTTMDEFRQHLQATGVSLGGVDLTVRVLTTGYWPTQSATPKCNIPPAPRHAFEIFRRFYLAKHSGRQLTLQHHMGSADLNATFYGPVKKEDGSEVGVGGAQVTGSNTRKHILQVSTFQMTILMLFNNREKYTFEEIQQETDIPERELVRALQSLACGKPTQRVLTKEPKSKEIENGHIFTVNDQFTSKLHRVKIQTVAAKQGESDPERKETRQKVDDDRKHEIEAAIVRIMKSRKKMQHNVLVAEVTQQLKARFLPSPVVIKKRIEGLIEREYLARTPEDRKVYTYVA
notes: Cullin 3 (CUL3), human cDNA subcloned into pEYFP, exon 9 (amino-acids […]) deleted; In the dimerisation BRET one copy carried luciferase as donor (Luc-CUL3-∆9) and the other YFP as acceptor (YFP-CUL3-∆9); both copies are written as this one molecule; also called Luc-CUL3-∆9 (donor copy in the dimerisation BRET); source: HEK293, transfected; not shown: YFP, N-terminal, kept
BRET50 [5]: 1.27 [Luc]/[YFP] ratio
